Consider 26 compounds from the supplement of paper PMC8047034.

Structures can show the parent of a compound that is named as a salt. Some of the results follow. Most values come without repeats; read them as rough.

In one experiment the test system is OVCAR4. The experiment can be described thus: log2 surviving fraction (library drug vs vehicle, or drug + carboplatin vs carboplatin alone; relative to plate median); ovarian cancer lines: OVCAR4 is platinum-sensitive and Ov4Carbo platinum-resistant; higher = more cell survival. The conditions noted are these: library drug concentration 10 µM, 7 days.
The subject of another experiment is Ov4Carbo. Described as above. To be noted: library drug concentration 10 µM, 7 days.

In the case of `Cc1cccc(Cc2c[nH]cn2)c1C` [Detomidine HCl], the log2 surviving fraction in the experiment on OVCAR4 (carboplatin co-treatment 0 µM) is 1.24; in the experiment on OVCAR4 (carboplatin co-treatment 5 µM), -0.275; with Ov4Carbo (carboplatin co-treatment 0 µM) it was 0.677; in the experiment on Ov4Carbo (carboplatin co-treatment 5 µM) it was 0.597.
The corresponding values for `O=c1cc[nH]c(=O)[nH]1` [Uracil] are 0.175, -0.218, 0.0477 and -0.25.
The corresponding values for `Cc1c(-c2ccccc2)oc2c(C(=O)OCCN3CCCCC3)cccc2c1=O` [Flavoxate HCl] are 0.753, 1.67, 1.08 and 1.12.
In the case of `CN(C)CCc1c[nH]c2ccc(C[C@H]3COC(=O)N3)cc12` [Zolmitriptan (Zomig)], the log2 surviving fraction was -2.68 in the experiment with OVCAR4 (carboplatin co-treatment 0 µM), -0.235 in the experiment on OVCAR4 (carboplatin co-treatment 5 µM), 0.372 in the experiment with Ov4Carbo (carboplatin co-treatment 0 µM) and 0.467 in the experiment with Ov4Carbo (carboplatin co-treatment 5 µM).
Take `O=C(OCC(O)CO)c1ccccc1Nc1ccnc2cc(Cl)ccc12` (centres undefined) [Glafenine HCl]: the log2 surviving fraction in the experiment on OVCAR4 (carboplatin co-treatment 0 µM) was -0.379; in the experiment on OVCAR4 (carboplatin co-treatment 5 µM), -0.25; with Ov4Carbo (carboplatin co-treatment 0 µM) it was -0.446; with Ov4Carbo (carboplatin co-treatment 5 µM), -0.127.
For `Nc1ccc(S(=O)(=O)Nc2ncccn2)cc1` [Sulfadiazine], in that order: 1.37, 0.986, 0.805 and 0.396.
Consider `CC(S)C(=O)NCC(=O)O` (centres undefined) [Tiopronin (Thiola)], for which the log2 surviving fraction in the experiment with OVCAR4 (carboplatin co-treatment 0 µM) came out at 1.77; with OVCAR4 (carboplatin co-treatment 5 µM), 1.63; in the experiment with Ov4Carbo (carboplatin co-treatment 0 µM) it was 0.759; with Ov4Carbo (carboplatin co-treatment 5 µM) it was 0.902.
Turning to `O=C1c2cccc3c2[C@H](CCC3)CN1[C@@H]1CN2CCC1CC2` [Palonosetron HCl], the log2 surviving fraction in the experiment with OVCAR4 (carboplatin co-treatment 0 µM) is -1.74; with OVCAR4 (carboplatin co-treatment 5 µM), -0.705; in the experiment on Ov4Carbo (carboplatin co-treatment 0 µM), -1.52; in the experiment on Ov4Carbo (carboplatin co-treatment 5 µM), -1.36.
For `CO/N=C(\C(=O)N[C@@H]1C(=O)N2C(C(=O)O)=C(CSC(=O)c3ccco3)CS[C@H]12)c1csc(N)n1` [Ceftiofur hydrochloride], in that order: -0.112, 0.0419, 0.129 and 0.336.
For `CCOC(CN1CCN(CC(C)C(=O)c2ccccc2)CC1)c1ccccc1` (centres undefined) [Eprazinone 2HCl], in that order: 0.0788, 0.597, 0.189 and 0.439.
Take `CC(C)C(=O)Oc1ccc(CO)cc1[C@H](CCN(C(C)C)C(C)C)c1ccccc1` [Fesoterodine fumarate (Toviaz)]: the log2 surviving fraction in the experiment with OVCAR4 (carboplatin co-treatment 0 µM) is 0.0852; in the experiment with OVCAR4 (carboplatin co-treatment 5 µM) it was 0.655; in the experiment on Ov4Carbo (carboplatin co-treatment 0 µM), 0.32; in the experiment on Ov4Carbo (carboplatin co-treatment 5 µM) it was -0.232.
For the compound `Cc1c(O)c(=O)ccn1C` [Deferiprone], the log2 surviving fraction with OVCAR4 (carboplatin co-treatment 0 µM) is 0.21; in the experiment with OVCAR4 (carboplatin co-treatment 5 µM) it was 0.105; with Ov4Carbo (carboplatin co-treatment 0 µM) it was -0.5; in the experiment with Ov4Carbo (carboplatin co-treatment 5 µM), -1.01.
On to `CCCOc1ccc2[nH]c(NC(=O)OC)nc2c1` [Oxibendazole], for which the log2 surviving fraction with OVCAR4 (carboplatin co-treatment 0 µM) was -6.34; with OVCAR4 (carboplatin co-treatment 5 µM), -5.52; with Ov4Carbo (carboplatin co-treatment 0 µM) it was -4.48; with Ov4Carbo (carboplatin co-treatment 5 µM), -4.66.
The corresponding values for `C[C@]12C=CC(=O)C=C1CC[C@H]1[C@@H]3C[C@@H](O)[C@](O)(C(=O)CO)[C@@]3(C)C[C@H](O)[C@@]12F` [Triamcinolone (Aristocort)] are -0.0872, -0.877, 0.188 and -10.6.
For `CCN(CC)CCCC(C)Nc1ccnc2cc(Cl)ccc12` (centres undefined) [Chloroquine Phosphate], in that order: -0.108, -0.0461, -0.713 and -0.0576.
Turning to `CN[C@@H]1[C@H](O[C@H]2[C@H](O[C@H]3[C@H](O)[C@@H](O)[C@H](N=C(N)N)[C@@H](O)[C@@H]3N=C(N)N)O[C@@H](C)[C@]2(O)C=O)O[C@@H](CO)[C@H](O)[C@H]1O` [Streptomycin sulfate], the log2 surviving fraction with OVCAR4 (carboplatin co-treatment 0 µM) is 0.845; in the experiment on OVCAR4 (carboplatin co-treatment 5 µM), 0.365; in the experiment with Ov4Carbo (carboplatin co-treatment 0 µM), 1.64; in the experiment on Ov4Carbo (carboplatin co-treatment 5 µM), 0.832.
For `Oc1c(Br)cc(Br)c2cccnc12` [Broxyquinoline], in that order: -1.81, -2.24, -0.977 and -0.791.
For `Cc1cccc(C)c1NC(=O)CN1CCCC1=O` [Nefiracetam (Translon)], the log2 surviving fraction in the experiment with OVCAR4 (carboplatin co-treatment 0 µM) is -0.0486; with OVCAR4 (carboplatin co-treatment 5 µM), 1.42; in the experiment on Ov4Carbo (carboplatin co-treatment 0 µM), 0.857; with Ov4Carbo (carboplatin co-treatment 5 µM) it was 0.559.
For `C=C(C)[C@@H]1[C@H]2OC(=O)[C@@H]1[C@]1(O)C[C@H]3O[C@]34C(=O)O[C@H]2[C@]14C` [Picrotoxinin], in that order: -0.309, 1.14, -0.0813 and -1.35.
For `CN(C)C(=O)C(CCN1CCC(O)(c2ccc(Cl)cc2)CC1)(c1ccccc1)c1ccccc1` [Loperamide hydrochloride], in that order: -5.78, -4.95, -5.19 and -4.52.
The corresponding values for `O=C(NCCN1CCOCC1)c1ccc(Cl)cc1` [Moclobemide] are -1.91, -2.22, 0.444 and -0.487.
With `Clc1ccc(COC(Cn2ccnc2)c2ccc(Cl)cc2Cl)cc1` (centres undefined) [Econazole nitrate (Spectazole)], the log2 surviving fraction with OVCAR4 (carboplatin co-treatment 0 µM) was -2.05; in the experiment with OVCAR4 (carboplatin co-treatment 5 µM) it was -1.79; with Ov4Carbo (carboplatin co-treatment 0 µM) it was -1.6; in the experiment on Ov4Carbo (carboplatin co-treatment 5 µM) it was -1.3.
For `CCCNCC(O)COc1ccccc1C(=O)CCc1ccccc1` (centres undefined) [Propafenone (Rytmonorm)], in that order: -0.415, -0.539, -0.668 and -0.0783.
The corresponding values for `O=C(Nc1ccc([N+](=O)[O-])cc1Cl)c1cc(Cl)ccc1O` [Niclosamide (Niclocide)] are -8.03, -7.46, -8.08 and -7.24.
`Nc1nc(O)c2ncn(CCC(CO)CO)c2n1` [Penciclovir]: the log2 surviving fraction is -0.182 with OVCAR4 (carboplatin co-treatment 0 µM), 0.209 in the experiment with OVCAR4 (carboplatin co-treatment 5 µM), -0.359 with Ov4Carbo (carboplatin co-treatment 0 µM) and 0.459 in the experiment on Ov4Carbo (carboplatin co-treatment 5 µM).
The corresponding values for `CC1CNc2c(cccc2S(=O)(=O)N[C@@H](CCCNC(=N)N)C(=O)N2CC[C@@H](C)C[C@@H]2C(=O)O)C1` (some centres undefined) [Argatroban] are 1, 0.826, 1.41 and 0.857.
